This is an account of results in article PMC3056899 (Structure (London, England : 1993), 2011).

Data set [1] concerns the target T1, CFIm68 N13-235 (methylated) (human, UniProt Q16630 13-235, reductive methylation).
T1 sequence (looked up): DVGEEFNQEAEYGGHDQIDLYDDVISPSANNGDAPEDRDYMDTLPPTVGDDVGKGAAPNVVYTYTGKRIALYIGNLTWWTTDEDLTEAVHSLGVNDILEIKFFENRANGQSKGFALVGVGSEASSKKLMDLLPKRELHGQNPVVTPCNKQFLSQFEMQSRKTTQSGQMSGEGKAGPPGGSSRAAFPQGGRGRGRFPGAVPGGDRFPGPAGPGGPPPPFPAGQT
The data set can be described thus: crystal structure.

Data set [2] deals with the molecule itself. The data set can be described thus: crystal structure.

B1: CFIm25ΔN21 (methylated) (domain or fragment)
chain: not shown
modifications: reductive methylation
Turning to B1, in data set [1], the binding result is on record as “binds”. Besides, the stoichiometry N (in general, a count of units in the complex or per binding partner) in data set [2] is 2.
